Laboratory results as given in PubChem BioAssay AID485344 (National Center for Advancing Translational Sciences (NCATS), 2010).
Hit rate of the full screen: of about 340,000 compounds, about 6,900 (2%) were called active. Rule as the data show it: active = inhibition above about 30%; inactive = below that, where a call was filed. Only a part is listed here, and it is no random draw. The source gives no active or inactive call for entries shown without one.

What follows are compounds tested against D(2) dopamine receptor (Homo sapiens) (UniProt P14416) (assay: HTS Assay for Allosteric Antagonists of the Human D2 Dopamine Receptor: Primary Screen for Antagonists). Settings: HEK293 TREx D2 cells, calcium flux, dopamine EC80; at 10 µM; stronger effect = higher value.
Outline: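 In this primary screen, negative modulation is detected by tracking calcium flux after an EC80 dopamine challenge in inducible HEK293 T-REx D2 cells preexposed to test compound for 180 s.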
Also: 0% is about no effect.

Chain of UniProt P14416 (P14416 whole entry, looked up): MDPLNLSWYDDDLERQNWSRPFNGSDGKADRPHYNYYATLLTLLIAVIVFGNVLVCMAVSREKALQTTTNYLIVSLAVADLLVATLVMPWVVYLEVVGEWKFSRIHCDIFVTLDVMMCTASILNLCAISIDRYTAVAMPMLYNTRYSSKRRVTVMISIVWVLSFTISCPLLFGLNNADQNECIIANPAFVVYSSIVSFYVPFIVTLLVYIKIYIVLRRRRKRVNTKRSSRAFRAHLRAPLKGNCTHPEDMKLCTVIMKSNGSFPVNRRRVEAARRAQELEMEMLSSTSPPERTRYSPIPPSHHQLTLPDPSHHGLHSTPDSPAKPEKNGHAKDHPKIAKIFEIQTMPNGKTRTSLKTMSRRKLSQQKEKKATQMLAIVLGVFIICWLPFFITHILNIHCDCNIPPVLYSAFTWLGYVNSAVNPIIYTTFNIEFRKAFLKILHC

| Structure (SMILES) | inhibition |
| --- | --- |
| COc1ccccc1CNC(=O)c1oc2ccc3c(c2c1C)C(=O)CC(C)(C)O3 | 3.27% |
| COc1ccc(-c2noc(-c3ccc(NCC4CCCO4)c([N+](=O)[O-])c3)n2)cc1OC (configuration not stated) | 1.06% |
| CCN1CCN(C(=O)c2cc3c(s2)-c2ccccc2S(=O)(=O)C3)CC1 | active: 45.3% |
| O=C(NC(=S)N1CCN(c2ccc([N+](=O)[O-])cc2)CC1)c1ccccc1 | active: 31% |
| COc1ccccc1C(=O)OCc1cc(=O)n2nc(C(C)C)sc2n1 | -2.56% |
| CCCC1=Nc2cc(C(=O)N3CCC(C)CC3)ccc2Sc2ccc(C)cc21 | 0.436% |
| CC1=C(C(=O)OC2CCCCCC2)C(c2cccc(Cl)c2)CC(=O)N1 (configuration not stated) | 5.74% |
| Cc1ccc2c(=O)c(C(=O)c3cccc(Cl)c3)cn(CC(=O)Nc3ccccc3C(F)(F)F)c2n1 | -0.576% |
| CCOc1ccc(-n2nc3ccc(NC(=O)c4ccc(-c5cccc(Cl)c5)o4)cc3n2)cc1 | 4.1% |
| Cc1nc2scc(C)n2c(=O)c1S(=O)(=O)Nc1cccc(C(F)(F)F)c1 | -11.4% |
| O=C(Nc1ccc2c(c1)OCO2)NC1CCN(Cc2ccccc2)CC1 | active: 46.4% |
| COc1ccccc1Cc1nc2ccccc2nc1SCC(=O)NCc1ccccc1Cl | 13.8% |
| CN1CCc2nc3sc(C(=O)Nc4ccccc4C(F)(F)F)c(N)c3cc2C1 | -1.27% |
| COc1cccc(C(=O)Nc2cccc(C(=O)OCc3cc(=O)n4c(C)csc4n3)c2)c1 | 7.9% |
| Cn1c(SCC(=O)Nc2nc3ccccc3s2)ncc(C(=O)Nc2ccc(F)cc2)c1=O | 5.45% |
| Cc1c(C(=O)NC(C)c2ccccc2)sc2nc3n(c(=O)c12)CCCC3 (configuration not stated) | 7.41% |
| COCCNC(=O)c1ccc2c(c1)N=C(C)c1cc(C)ccc1S2 | -10.2% |
| NS(=O)(=O)c1ccc2nc(NC(=O)COc3ccc(Cl)cc3Cl)sc2c1 | -10.5% |
| CCOC(=O)COc1ccc(C)cc1C(=O)c1ccn2nc(-c3ccc(F)cc3)cc2n1 | -22% |
| CC1CCN(C(=O)c2cccc(NC(=O)c3nsc4ccccc34)c2)CC1 | 13% |
| COc1ccc(CC(=O)N2CCc3cc(OC)c(OC)cc3C2COc2ccc(F)cc2)cc1OC (configuration not stated) | 25.4% |

| Structure (SMILES) | inhibition |
| --- | --- |
| O=C(NCc1ccccc1)c1ccc2oc(=O)n(Cc3ccccc3)c2c1 | 4.79% |
| CCCNC(=O)CSc1nc(-c2ccc(OC)cc2)cc(C(F)(F)F)n1 | -2.42% |
| O=C(CC1N=C2c3ccccc3N=C(SCC(=O)Nc3ccc(F)cc3)N2C1=O)NCc1cccs1 (configuration not stated) | -0.582% |
| c1ccc(CN2CCC3(CCCc4ccccc43)CC2)cc1 | active: 42.7% |
| CCN(CC)CCCNC(=O)c1ccc2c(Cl)c3c(nc2c1)CCCC3 | -4.7% |
| COCCCNC(=O)C1CCN(c2cc(C)nc3c(-c4ccc(Cl)cc4)c(C)nn23)CC1 | -1.5% |
| COc1ccc(C(=O)NCCn2cc(SCC(=O)Nc3ccc4c(c3)OCCO4)c3ccccc32)cc1OC | 10.1% |
| CC(C)CC1Nc2ccc(C(=O)NCCCOC(C)C)cc2NC1=O (configuration not stated) | -2.84% |
| CCOC(=O)Cn1c(=O)n(-c2ccccc2OC)c2nc(-c3ccc(C(C)C)cc3)nc(C(N)=O)c21 | -1.48% |
| CCOC(=O)c1c(Oc2ccc(C(C)=O)cc2)nnc(-c2ccccc2)c1-c1ccccc1 | -21.3% |
| CCc1nn2c(=O)cc(COC(=O)C(CC)c3ccccc3)nc2s1 (configuration not stated) | -7.84% |
| CCNC(=O)Cn1nc(C)n2c(cc3c(OC)cccc32)c1=O | 16.5% |
| Cc1ccc(NC(=O)C2CCN(c3nnc(C)c4c(C)n(-c5ccccc5)nc34)CC2)cc1Cl | 5.02% |
| Cc1oc2ccc(O)c(CN3CCOCC3)c2c1C(=O)Nc1cccc(Cl)c1C | 6.91% |
| Cc1c(Cl)cccc1-n1ncc(C(=O)N2CCOCC2)c1C1CCN(C(=O)OC(C)(C)C)CC1 | 0.647% |
| Cc1ccc(OCCCSc2nc(-c3ccc(C(C)(C)C)cc3)nc3cc(=O)[nH]n23)cc1C | 6.6% |
| Cc1cc(C)n(C(C)CC(=O)NCc2ccc(Cl)cc2)n1 (configuration not stated) | 7.1% |
| Cc1ccc(OCC(=O)OCc2cc(=O)n3nc(C4CC4)sc3n2)cc1 | 6.73% |
| Cc1cccn2c(=O)c3cc(C(=O)Nc4ccc(Cl)c(Cl)c4)sc3nc12 | 3.24% |
| Cc1ccc(Nc2ccc(N3CCN(C(=O)c4ccc([N+](=O)[O-])cc4)CC3)nn2)cc1 | -20.9% |
| Cc1ccc(S(=O)(=O)NCCc2csc(-c3cccc(F)c3)n2)cc1 | 0.773% |

| Structure (SMILES) | inhibition |
| --- | --- |
| Cn1c(SCc2ccc(Br)cc2)nc2c([nH]c3ccccc32)c1=O | -12.7% |
| Cc1nc2ccn(Cc3ccco3)c(=O)c2cc1C(=O)NCc1ccc(F)cc1 | 15.7% |
| Cc1ccc(NC(=O)CN2C(=O)CC(C)Sc3ccccc32)c(C)c1 (configuration not stated) | 6.8% |
| CCOC(=O)c1cccc(NS(=O)(=O)c2cc3c(cc2C)NC(=O)CO3)c1 | 11.3% |
| O=C(c1ccc(Nc2nc3ccccc3n3nnnc23)cc1)N1CCN(c2cccc(C(F)(F)F)c2)CC1 | 9.47% |
| Cc1ccc(C)c(NS(=O)(=O)c2cc3c4c(c2)C(C)C(=O)N4CCC3)c1 (configuration not stated) | 19.3% |
| C(=N\N1CCOCC1)/c1nc(-c2ccccc2)n2ccccc12 | active: 43.4% |
| CCCCN(CC)C(=O)c1cc2c(=O)n3cccc(C)c3nc2s1 | 24.5% |
| COc1cc(Cl)c(C)cc1NC(=O)c1cnc(N2CCOCC2)c2ccccc12 | 19.3% |
| CCOC(=O)c1ccc(NC(=O)CSC2=NC(=O)C(CC)C(=O)N2)cc1 (configuration not stated) | active: 47% |
| CCc1ccccc1NC(=O)CC1Sc2ccc(C(F)(F)F)cc2NC1=O (configuration not stated) | 11.4% |
| CCCCSc1nnc2c(n1)OC(C)N(C(C)=O)c1ccccc1-2 (configuration not stated) | 9.96% |
| COc1ccc(CCNC(=O)Cc2c(C)c3cc4c(C)coc4c(C)c3oc2=O)cc1 | 22.3% |
| COc1ccc(CCNC(=O)C2COc3ccccc3C2)cc1OC (configuration not stated) | -8.46% |
| Cn1c(Oc2ccc(Cl)cc2)nc2c1c(=O)n(Cc1ccc(F)cc1)c(=O)n2C | 5.83% |
| COc1cc(C)c(S(=O)(=O)NCc2ccc3c(c2)OCO3)cc1C | active: 31.7% |
| COc1ccc(C(=O)NC(c2ccc(Cl)cc2)c2cc(Cl)c3cccnc3c2O)cc1 (configuration not stated) | 0.86% |
| O=C(NCCc1ccccc1)c1ccc2c(c1)N(Cc1ccc(F)cc1)C(=O)c1ccccc1S2 | 8.47% |
| CCc1ccc(-c2cc(C)no2)cc1S(=O)(=O)Nc1ccc(C)cn1 | 0.153% |
| Cc1cccc(-c2nnn3c2nc(NCc2ccccc2)c2ccccc23)c1 | -13.4% |
